# Results from PubChem BioAssay AID1347165 (National Center for Advancing Translational Sciences (NCATS), 2019).
# Out of some 220,000 compounds screened, about 5,700 (2.6%) were called active. Inconclusive means that the source gave no clear call. Such entries were picked first, then a sample of the others. Calls follow the shape of the dose curve; as a rule, active = well fitted inhibition curve with a large enough effect; inconclusive = small, poorly fitted or top-dose-only effect; inactive = no such curve, though single readings can be large or run the other way. Potencies beside an inconclusive call are fits to weak or partial responses and may not hold up.
# Target: Lysine-specific demethylase 5B (Homo sapiens) (UniProt Q9UGL1)
# UniProt Q9UGL1, sequence (Q9UGL1 whole entry, looked up): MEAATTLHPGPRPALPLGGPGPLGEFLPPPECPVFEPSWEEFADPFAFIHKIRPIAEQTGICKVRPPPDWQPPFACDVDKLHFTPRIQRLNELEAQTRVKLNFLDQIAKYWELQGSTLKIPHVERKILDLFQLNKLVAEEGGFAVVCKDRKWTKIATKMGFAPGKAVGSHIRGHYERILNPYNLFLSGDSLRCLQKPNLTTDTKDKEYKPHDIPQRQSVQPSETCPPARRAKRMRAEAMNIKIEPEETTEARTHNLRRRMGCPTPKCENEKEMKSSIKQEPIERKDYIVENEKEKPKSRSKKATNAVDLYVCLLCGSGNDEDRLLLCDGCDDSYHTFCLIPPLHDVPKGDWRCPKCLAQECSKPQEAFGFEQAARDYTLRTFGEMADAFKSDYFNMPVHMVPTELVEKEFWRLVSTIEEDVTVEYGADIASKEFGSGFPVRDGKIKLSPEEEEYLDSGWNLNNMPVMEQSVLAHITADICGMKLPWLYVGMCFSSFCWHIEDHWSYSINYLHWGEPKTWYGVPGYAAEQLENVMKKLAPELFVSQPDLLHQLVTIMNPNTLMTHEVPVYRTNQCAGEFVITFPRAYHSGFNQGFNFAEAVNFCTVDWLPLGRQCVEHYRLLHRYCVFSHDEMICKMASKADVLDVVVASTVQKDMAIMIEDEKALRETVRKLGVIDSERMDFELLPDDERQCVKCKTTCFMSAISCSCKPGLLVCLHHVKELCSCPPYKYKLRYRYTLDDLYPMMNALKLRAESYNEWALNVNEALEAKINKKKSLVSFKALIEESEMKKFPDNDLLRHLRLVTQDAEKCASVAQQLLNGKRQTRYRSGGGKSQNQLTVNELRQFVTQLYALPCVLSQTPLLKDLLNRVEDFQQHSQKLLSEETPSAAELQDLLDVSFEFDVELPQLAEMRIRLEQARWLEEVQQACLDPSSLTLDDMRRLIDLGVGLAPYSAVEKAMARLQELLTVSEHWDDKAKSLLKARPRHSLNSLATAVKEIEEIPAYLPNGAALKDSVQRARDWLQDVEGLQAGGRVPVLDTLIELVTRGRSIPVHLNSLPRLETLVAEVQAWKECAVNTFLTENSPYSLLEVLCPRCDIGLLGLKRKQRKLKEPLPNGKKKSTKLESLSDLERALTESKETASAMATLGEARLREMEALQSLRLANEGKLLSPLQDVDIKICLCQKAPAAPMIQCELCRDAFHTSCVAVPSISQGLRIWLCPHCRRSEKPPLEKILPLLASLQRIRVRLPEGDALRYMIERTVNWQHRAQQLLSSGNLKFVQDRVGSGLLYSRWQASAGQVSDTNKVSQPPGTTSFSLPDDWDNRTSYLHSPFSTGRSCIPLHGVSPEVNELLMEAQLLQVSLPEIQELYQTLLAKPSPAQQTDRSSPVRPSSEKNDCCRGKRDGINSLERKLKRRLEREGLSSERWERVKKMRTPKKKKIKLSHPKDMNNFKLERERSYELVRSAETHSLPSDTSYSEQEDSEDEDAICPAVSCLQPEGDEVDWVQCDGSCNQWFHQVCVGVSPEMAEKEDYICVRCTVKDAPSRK
# Test: Primary screen for KDM5B Histone Demethylases FDH-coupled qHTS; also: nearly all actives have a fitted effect of over 70% in size; as to activity change, negative = inhibition: 0% is about no effect
# Conditions: FDH-coupled NADH fluorescence (FDH is formaldehyde dehydrogenase); activity change, negative = inhibition: at 57.7 µM (top of the series) unless noted
# In short: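 qHTS format, multiple compound concentrations. Buffer 50 mM HEPES pH 7.5/0.01% Tween-20; 200 nM KDM5BΔAP final; 10 min compound preincubation; substrate-mix levels 12.5 µM peptide, 25 µM α-KG, 0.25 mM NAD⁺; 30 min RT; ΔRFU.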
# Potency is read from the fitted curve at half-maximal effect; tags tell the direction and shape of the fitted curve.
Compound,"activity change, negative = inhibition",Potency
CC(C)C[C@H](NC(=O)c1ccc2nc(-n3cccc3)sc2c1)C(=O)NCc1ccncc1,inactive: 4.05%,–
c1ccc(-c2ccc(Oc3nc(-c4ccccc4)cs3)cc2)cc1,inactive: 13.2%,–
Cc1ccc(NC(=O)O[C@@H]2CO[C@H]3[C@@H]2OC[C@@H]3Nc2nccc(-c3ccccc3)n2)cc1,–,active: 28.2 µM
Cc1cccc([N+](=O)[O-])c1NC(=O)COc1ncnc2ccccc12,inactive: 4.68%,–
CCOc1cc(/C=C/C(=O)c2ccc(C)cc2)cc(Br)c1O,inactive: -9.38%,–
Cc1ccc(NC(=O)C2=Cc3cc(Cl)ccc3OC=C2)cc1,inactive: -9.94%,–
CCOCCn1c(SC)nc2c1c(=O)[nH]c(=O)n2C,–,"inconclusive: 28.2 µM [inhibitor, partial curve, poor fit]"
CCc1ccc(Sc2cc(C(=O)NCCCOC(C)C)c3ccccc3n2)cc1,–,"inconclusive: 28.2 µM [inhibitor, partial curve, poor fit]"
Cc1cc(C)cc(OCC(=O)Nc2ccc(Cl)c(-c3nc4ncccc4o3)c2)c1,–,"inconclusive: 35.5 µM [inhibitor, partial curve, poor fit]"
Cc1ccc(F)cc1S(=O)(=O)NC1CCN(c2ccc(=O)n(CC3CC3)n2)CC1,–,active: 28.2 µM
Cc1cnc(C(=O)NC(c2ccccc2)c2ccccn2)cn1 (stereo not drawn),inactive: 12.4%,–
N#Cc1ccc(OC(=O)c2cc(-c3ccc4c(c3)OCCO4)on2)cc1,–,"inconclusive: 11.2 µM [inhibitor, partial curve, poor fit]"
CC(=O)Nc1ccc(-n2c(CCC(=O)O)ccc2-c2ccc(C)cc2)cc1,–,"inconclusive: 1.12 µM [inhibitor, partial curve, poor fit]"
Cc1ccc(-c2cc(C(=O)NCc3ccco3)c3cccc(C)c3n2)cc1,–,"inconclusive: 39.8 µM [inhibitor, partial curve, poor fit]"
CC(C)C(=O)Nc1ccc(F)c(F)c1,inactive: 5.75%,–
Cc1cn2nc(C(=O)N3CCC(NC(=O)Cc4ccsc4)CC3)cc2c(=O)[nH]1,–,"inconclusive: 35.5 µM [inhibitor, partial curve, poor fit]"
CCOc1ccc(C(C)=O)cc1COc1ccc2c(C)cc(=O)oc2c1C,–,"inconclusive: 20 µM [inhibitor, partial curve, poor fit]"
O=C(c1ccccc1F)N1CCC(O)(c2csc(CN3CCc4ccccc4C3)n2)CC1,–,"inconclusive: 10 µM [inhibitor, partial curve]"
CN(C)C[C@@H]1CN(Cc2ccccn2)C[C@H]1NC(=O)c1cccc(Cl)c1,–,"inconclusive: 17.8 µM [inhibitor, partial curve, poor fit]"
CCOCc1nnc(NC(=O)C2CC(=O)N(CCc3c[nH]c4ccc(C)cc34)C2)s1 (stereo not drawn),inactive: -0.381%,–
COc1ccc2c(c1)CCN=C2C[C@H]1CN(C(=O)c2cccc(F)c2)CC[C@H]1CC(=O)O,–,"inconclusive: 31.6 µM [inhibitor, partial curve, poor fit]"
Cc1nc(-c2ccc(Cl)cc2)n(Cc2ccc(F)cc2)c(=O)c1CCO,inactive: -24.5%,–
CCOC(=O)COc1cccc2c(=O)n(CC(=O)N3CCCCC3)ccc12,–,"inconclusive: 22.4 µM [inhibitor, single point]"

Compound,"activity change, negative = inhibition",Potency
c1ccc(-c2csc(-c3ccccn3)n2)cc1,–,"inconclusive: 39.8 µM [inhibitor, partial curve, poor fit]"
O[C@@H]1C[C@@H](c2nc(-c3cnccn3)no2)N(CC2CCCCC2)C1,–,"inconclusive: 28.2 µM [inhibitor, partial curve, poor fit]"
CSc1ccc(CC2C(=O)Nc3ccccc32)cc1 (stereo not drawn),inconclusive: -43.9% [inhibitor],–
c1cc(-c2ccnc3nc(C4CCC4)nn23)ccn1,–,active: 28.2 µM
O=C(O)c1cnc(NCc2ccncc2)nc1-c1ccccc1,–,"inconclusive: 28.2 µM [inhibitor, partial curve, poor fit]"
O=C(NN1CCOCC1)c1ccn(COc2ccc(Br)cc2)n1,inactive: 18.3%,–
O=C1c2cc(N3CCOCC3)nc(-c3cnc4[nH]ccc4c3)c2CN1CC1CC1,–,active: 12.6 µM
CC(C)NCC(=O)Nc1c2c(nc3ccccc13)CCC2,–,"inconclusive: 14.1 µM [inhibitor, partial curve, poor fit]"
COc1ccc(-c2nc(-c3c(C)noc3C)cc3c2cc(C)n3C)cn1,–,active: 35.5 µM
Cc1c(C(=O)N(Cc2ccc(Cl)cc2)CC2CCCO2)oc2ccc(F)cc12 (stereo not drawn),–,"inconclusive: 31.6 µM [inhibitor, partial curve, poor fit]"
CCn1c(CN2CCOCC2)nc2cc(NC(=O)c3ccc([N+](=O)[O-])cc3)ccc21,–,"inconclusive: 31.6 µM [inhibitor, single point]"
COc1ccc(NC(=O)Nc2c[nH]c(=O)[nH]c2=O)c(OC)c1,–,"inconclusive: 25.1 µM [inhibitor, partial curve, poor fit]"
CCc1ccc(NC(=O)C2=CC(c3ccc4c(c3)OCO4)=NS(=O)(=O)N2C)cc1,inactive: -21.4%,–
O=C(NCc1ccccc1)c1ccc2c(c1)OCCN(CCC(F)(F)F)C2,inactive: -17.6% [at 86.2 µM],–
COc1ccc(-c2nc3n(c(=O)c2C#N)CCS3)c(OC)c1,–,"inconclusive: 39.8 µM [inhibitor, partial curve, poor fit]"
CCN(CC)Cc1cnc2c(C(=O)N3CCC(N(C)C)C3)cnn2c1 (stereo not drawn),–,"inconclusive: 25.1 µM [inhibitor, partial curve, poor fit]"
Cc1ccc(CN(CC(=O)N2CCOCC2)S(=O)(=O)c2ccc(Cl)cc2)cc1,inactive: 11.7%,–
C[C@@H](NC(=O)c1cccs1)c1c(-c2ccc(F)cc2)noc1C(=O)O,–,"inconclusive: 31.6 µM [inhibitor, single point]"
Cc1cc(Cl)ccc1-n1nc(C)c([C@@H]2C=C[C@@H](NC(=O)c3ccc(N(C)C)cc3)C2)c1C,–,"inconclusive: 28.2 µM [inhibitor, single point]"
CCc1ccc(NC(=O)c2nnn(Cc3cccc(C(F)(F)F)c3)c2N)cc1,inconclusive: -41.4% [inhibitor] [at 11.5 µM],–
NC(=O)CN1C(=O)CO[C@H]2CN(Cc3ccccc3F)C[C@H]21,inactive: -0.0819% [at 86.2 µM],–
COc1cccc(CNC(=O)COCc2cc(-c3ccc4c(c3)OCO4)on2)c1,–,"inconclusive: 35.5 µM [inhibitor, single point]"
Cn1ccnc1SCC(=O)NC1(C#N)CCCCCC1,inactive: 21.4%,–

Compound,"activity change, negative = inhibition",Potency
COc1ccc(NC(=O)CN2C(=O)c3ccccc3Sc3ccc(C(=O)N4CCOCC4)cc32)c(OC)c1,–,"inconclusive: 3.16 µM [inhibitor, partial curve, poor fit]"
COc1cccc(CN2CCCC(c3nc(C(C)C)no3)CCNC(=O)CC2)c1 (stereo not drawn),–,"inconclusive: 39.8 µM [inhibitor, single point]"
CC(C)C(=O)NCC(=O)O,inactive: 20%,–
Cc1noc(C)c1-c1cc2cc(CN3CCN(C)CC3)oc2c(NC2CCN(C)CC2)n1,inactive: -32.3% [at 86.2 µM],–
O=C(N/N=C/c1ccccn1)c1cccc(NC(=O)c2ccc(Cl)cc2)c1,–,"inconclusive: 35.5 µM [inhibitor, single point]"
COCCc1nncn1C1CCN(S(=O)(=O)c2ccc(Cl)cc2)CC1,inactive: -7.81%,–
Cc1cccc(NC(=O)CSc2nncn2CCc2cccs2)c1C,inactive: 12.6%,–
O=C(Cc1ccsc1)N1CCC2(CC1)CN(Cc1ccccc1)CC2CO (stereo not drawn),–,"inconclusive: 35.5 µM [inhibitor, single point]"
COc1cc(OC)cc(C(=O)Nc2cccc(-c3cn4cccnc4n3)c2)c1,–,"inconclusive: 2.82 µM [inhibitor, full curve, poor fit]"
CN(C)C[C@@H]1CN(C)C[C@H]1NS(=O)(=O)c1ccccc1C(F)(F)F,inactive: 26.3%,–
COc1ccccc1-n1cc2c(c1-c1ccc(C)cc1)c(=O)n(C)c(=O)n2C,–,"inconclusive: 28.2 µM [inhibitor, single point]"
Cc1ccccc1CNC(=O)c1sc2ncnc(N(C)C3CCCCC3)c2c1C,–,"inconclusive: 31.6 µM [inhibitor, partial curve, poor fit]"
CCOC(=O)c1ccccc1NC(=O)COC(=O)CN1C(=O)NC2(CCCC2)C1=O,–,"inconclusive: 28.2 µM [inhibitor, partial curve, poor fit]"
N#Cc1c(F)cccc1N1CCC(C#N)CC1,–,"inconclusive: 31.6 µM [inhibitor, partial curve, poor fit]"
CCCn1cc(SCC(=O)Nc2ccc(C)cc2)c2ccccc21,inactive: 4.52%,–
CCc1ccc(CN(C(=O)c2nc(S(C)(=O)=O)ncc2Cl)C2CCS(=O)(=O)C2)cc1 (stereo not drawn),–,"inconclusive: 14.1 µM [inhibitor, partial curve, poor fit]"
COc1ccc(CN2C[C@H](O)C[C@H]2c2nc(Cc3ccccc3)no2)cc1,–,"inconclusive: 31.6 µM [inhibitor, single point]"
COc1nnc(-c2ccc(N3CCOCC3)c(NC(=O)COc3cccc(C)c3)c2)c2ccccc12,–,"inconclusive: 31.6 µM [inhibitor, partial curve, poor fit]"
Cc1ccc(-c2ccc(C=O)o2)cc1Cl,–,"inconclusive: 31.6 µM [inhibitor, single point]"
O=C(NCc1cc(F)ccc1F)C1Cn2cccc2C(=O)N1Cc1ccccc1 (stereo not drawn),inactive: 4.17%,–
O=C(Cn1c(=O)n(Cc2ccc(C(=O)NCc3ccccc3Cl)cc2)c(=O)c2ccccc21)Nc1ccc(F)c(Cl)c1,–,"inconclusive: 25.1 µM [inhibitor, partial curve, poor fit]"
O=C(Cn1c(-c2cccs2)cc2ccccc21)NCc1ccccc1Br,–,"inconclusive: 28.2 µM [inhibitor, partial curve, poor fit]"
